From PMC4336329 (PLoS ONE, 2015) come the findings set out here.

The structures appear in SMILES notation. Screen size: about 310,000 compounds; about 14,000 (4.5%) showed an effect of 50% or more. The effect is printed as a negative number. This is one part of the list.
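Also: peak tail current of the secondary pulse compared with the same well before compound.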

human ether-à-go-go-related gene (hERG) potassium channel, sequence (Q12809 whole entry, looked up): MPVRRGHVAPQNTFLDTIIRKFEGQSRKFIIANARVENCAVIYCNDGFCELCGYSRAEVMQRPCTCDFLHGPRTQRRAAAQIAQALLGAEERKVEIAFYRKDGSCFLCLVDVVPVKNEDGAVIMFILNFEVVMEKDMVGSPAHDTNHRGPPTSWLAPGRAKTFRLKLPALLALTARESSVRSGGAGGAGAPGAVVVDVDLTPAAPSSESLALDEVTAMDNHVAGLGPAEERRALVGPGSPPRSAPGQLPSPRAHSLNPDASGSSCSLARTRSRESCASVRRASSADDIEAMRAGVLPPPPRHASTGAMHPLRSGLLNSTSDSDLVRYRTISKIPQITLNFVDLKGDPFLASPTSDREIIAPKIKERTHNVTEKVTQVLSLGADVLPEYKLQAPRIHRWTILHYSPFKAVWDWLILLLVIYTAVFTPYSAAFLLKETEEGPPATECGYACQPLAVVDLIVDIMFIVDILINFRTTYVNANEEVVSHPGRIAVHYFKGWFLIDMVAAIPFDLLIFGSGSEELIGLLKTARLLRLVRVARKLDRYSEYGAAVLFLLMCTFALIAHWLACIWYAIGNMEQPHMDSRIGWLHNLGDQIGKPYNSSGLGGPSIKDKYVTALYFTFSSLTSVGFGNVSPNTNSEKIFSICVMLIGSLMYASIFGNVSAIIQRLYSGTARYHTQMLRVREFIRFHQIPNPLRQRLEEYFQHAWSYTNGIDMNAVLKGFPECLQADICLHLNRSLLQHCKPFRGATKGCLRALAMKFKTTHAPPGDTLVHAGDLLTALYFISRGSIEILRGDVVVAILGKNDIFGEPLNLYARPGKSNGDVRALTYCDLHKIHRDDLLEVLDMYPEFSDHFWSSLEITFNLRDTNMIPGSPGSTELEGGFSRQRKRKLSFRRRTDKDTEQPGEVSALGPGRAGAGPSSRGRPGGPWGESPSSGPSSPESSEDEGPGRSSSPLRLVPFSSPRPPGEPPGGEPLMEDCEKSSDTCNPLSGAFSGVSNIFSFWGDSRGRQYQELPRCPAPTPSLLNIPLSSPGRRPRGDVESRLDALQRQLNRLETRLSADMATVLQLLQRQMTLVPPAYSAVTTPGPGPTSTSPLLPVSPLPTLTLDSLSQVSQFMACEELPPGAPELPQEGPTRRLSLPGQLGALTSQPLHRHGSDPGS

This test has as its target human ether-à-go-go-related gene (hERG) potassium channel (human, UniProt Q12809). Description: primary screen, population patch clamp on CHO cells stably expressing hERG.
Consider `Cc1ccc(S(=O)(=O)N2CCCCC2)cc1NC(=O)CN1C(=O)CN(C)C1=O`, for which the “hERG current change (%, negative = inhibition) at 10uM” value is recorded as 21.1%. On to `Nc1nonc1-c1noc(CCCCCN2C(=O)c3ccccc3C2=O)n1`, for which the “hERG current change (%, negative = inhibition) at 10uM” value is -3.42%. The figure for `O=C(CCn1c(=O)sc2ccccc21)NC1=NCCS1` is 3.89%. In the case of `COc1ccc2c(c1)nc(NCCO)n2C`, the “hERG current change (%, negative = inhibition) at 10uM” value turned out to be 2.42%. The value for `Cn1c(Nc2ccccc2)cc(=O)n(C)c1=O` was 17.3%. The figure for `Cc1ccc([C@@H]2CC=C(C(=O)O)[C@H](c3ccccc3F)N2S(=O)(=O)c2ccc(C)cc2)cc1` is 10.3%. The value for `Cc1ccc(NC(=O)CCC(=O)NCCO)cc1` was 10.2%. As for `Cc1ccc(S(=O)(=O)N2CCN(C(=O)Cn3cnc4c3c(=O)n(C)c(=O)n4C)CC2)cc1C`, the “hERG current change (%, negative = inhibition) at 10uM” value is on record as -12%. The figure for `COc1ccc(N2CCN(CC(=O)Nc3nc4c(s3)CC(C)CC4)CC2)cc1` (stereo not drawn) is -26%; for `COc1ccccc1NC(=O)CSc1nc2ccccc2nc1N1CC(C)OC(C)C1` (stereo not drawn) it is 16.6%; for `CCOc1ccccc1CNC(=O)c1cn(C)c(=O)c2c1c1ccccc1n2C` it is 14.7%. The value for `COc1ccc(C2C(C#N)=C(N)Oc3cc(C)n(Cc4ccncc4)c(=O)c32)cc1` (stereo not drawn) was -34.3%; that for `CCOc1ccc(/C=N/NC(=O)Cn2ccnc2C)cc1` was -6.24%. As to `Cc1cc(C)n(-c2ccc(Oc3ccccc3)c(S(=O)(=O)O)c2)n1`, the “hERG current change (%, negative = inhibition) at 10uM” value worked out at 20.4%. The figure for `CCCc1ccc2oc(C(=O)N(C)Cc3nccs3)c(C)c2c1` is -48.3%; for `O=C(Nc1ccccc1Cl)c1cc2ccccc2o/c1=N\O` it is 0.926%. The figure for `COc1cccc2sc(Nc3nc(-c4cc5ccccc5oc4=O)cs3)nc12` is 13.7%; for `COc1cc(OC)cc(C(=O)Nc2ccn(C)n2)c1` it is 22.3%; for `O=c1[nH]cccc1-c1nc2ccccc2n1Cc1ccc(F)cc1` it is -22.5%.

As for `CCC1(C)NC(=O)N(CC(=O)NCC(=O)Nc2c(C)cc(C)cc2C)C1=O` (stereo not drawn), the “hERG current change (%, negative = inhibition) at 10uM” value was 14.2%. The figure for `Cc1ccc(S(=O)(=O)N2CCN(C(=O)NCc3ccc(F)cc3)CC2)c(C)c1` is 5.98%; for `CC(=O)Nc1nc(C(F)(F)F)cs1` it is 7.96%. The figure for `COc1ccc(-c2c(-c3ccc4c(c3)OCO4)noc2C)cn1` is -12.6%; for `Cc1ccccc1OCC(=O)NC(=S)Nc1ccccc1N1CCN(S(C)(=O)=O)CC1` it is -4.59%. Turning to `CCOC(=O)C1=C(CC)Nc2ccccc2N=C1NC(=O)Nc1ccccc1OC`, the “hERG current change (%, negative = inhibition) at 10uM” value turned out to be 13.8%. The value for `Cn1cc(CN2CCCC(CNC(=O)c3ccc4c(c3)OCO4)C2)c2ccccc21` (stereo not drawn) was -43.6%; that for `COc1ccc(S(=O)(=O)N(C)CC(=O)NC2CCCC2)cc1Cl` was 4.03%; that for `Br.O=C(c1ccc(Br)cc1)c1sc(N2CCOCC2)nc1-c1ccccc1` was -1.44%. On to `Nc1c(C(=O)N2CCCCC2)sc2nc3c(cc12)CCCC3`, for which the “hERG current change (%, negative = inhibition) at 10uM” value is 2.72%. The figure for `CCn1nc(C)cc1C(=O)NC1CCCc2c1cnn2-c1ccc(C)c(C)c1` (stereo not drawn) is -8.78%; for `CCCC12CN(C(=O)c3ccc(OC)cc3)CC(C)(CN(C(=O)c3ccc(OC)cc3)C1)C2=O` it is -2.79%; for `Cc1nc2ccccc2c(=O)n1/N=C/c1ccc(OC(F)F)cc1` it is 8.31%. `CC(C)c1ccc(C2NC(C(=O)O)CS2)cc1` (stereo not drawn): the “hERG current change (%, negative = inhibition) at 10uM” value is reported as -6.38%.

For the compound `CC(=O)c1cccc(NC(=S)Nc2ccc(F)cc2)c1`, the “hERG current change (%, negative = inhibition) at 10uM” value was 0.536%.

In the case of `CC(C)Cc1cc(C(=O)N2CCC(N3CCC(C(=O)N4CCCC4)CC3)CC2)n[nH]1`, the “hERG current change (%, negative = inhibition) at 10uM” value amounted to 6.79%. The figure for `CC(C)CCn1nnnc1C(c1ccccc1F)N1CCC(C(N)=O)CC1` (stereo not drawn) is 1.41%; for `CCOc1ccc(NC(=O)NCc2cccnc2)cc1` it is 22.7%; for `CCOc1ccc(OCCSc2nc(N)cc(=O)[nH]2)cc1` it is 1.58%. The value for `CC(C)CCN(C(=O)CCCSc1nc2ccccc2[nH]1)c1c(N)n(Cc2ccccc2)c(=O)[nH]c1=O` was -18.7%. With `Cc1nc2sc(C(c3ccc(Br)cc3)N3CC(C)OC(C)C3)c(O)n2n1` (stereo not drawn), the “hERG current change (%, negative = inhibition) at 10uM” value is given as -0.694%. Turning to `CCOC(=O)/C(C#N)=C/c1c(N2CCCCCC2)nc2ccccn2c1=O`, the “hERG current change (%, negative = inhibition) at 10uM” value was -38.4%. In the case of `O=C(N/C(=C\c1ccc(Br)cc1)C(=O)N1CCCC1)c1ccccc1F`, the “hERG current change (%, negative = inhibition) at 10uM” value is listed as -71.8%. `CSc1ccc(S(=O)(=O)NCC(=O)OCC(=O)N2CCC(C)CC2)cc1[N+](=O)[O-]`: the “hERG current change (%, negative = inhibition) at 10uM” value is recorded as -38.2%. For the compound `Cc1cc(C(=O)CSc2nc3ccccc3c(=O)n2C)c(C)n1Cc1ccc2c(c1)OCO2`, the “hERG current change (%, negative = inhibition) at 10uM” value was found to be 12.9%. The value for `COc1ccccc1C(=O)Nc1nnc(S(=O)(=O)N2CCCCCC2)s1` was 3.54%; that for `COCCn1c(CN2CCN(C(=O)c3ccco3)CC2)nc2c1c(=O)n(C)c(=O)n2C` was -9.04%; that for `O=C1NC(=O)/C(=C/c2ccc(-c3cccc([N+](=O)[O-])c3)o2)S1` was 18.4%. In the case of `c1ccc2c(c1)CC/C2=N/Nc1nc2ccccc2[nH]1`, the “hERG current change (%, negative = inhibition) at 10uM” value is reported as 9.49%. In the case of `CCOc1ccc(S(=O)(=O)N2CCCC(C(=O)NCCN3CCOCC3)C2)cc1Cl` (stereo not drawn), the “hERG current change (%, negative = inhibition) at 10uM” value was -5.09%. The value for `COc1ccc(N2CCN(C(=O)C3Cc4ccccc4CN3C(=O)c3ccco3)CC2)cc1` (stereo not drawn) was -39.8%; that for `CN(C)C(=O)c1ccc2c(c1)C1C3CCC(C3)C1C(c1ccccc1)N2` (stereo not drawn) was -13.5%. Turning to `O=C(CSc1nc(N2CCOCC2)nc(N2CCOCC2)n1)Nc1ccccc1F`, the “hERG current change (%, negative = inhibition) at 10uM” value is 19.2%. The value for `Cc1cc(C)cc(OCC(=O)OCC(=O)Nc2c(C)n(C)n(-c3ccccc3)c2=O)c1` was 9.07%.

Take `c1cc(SSc2ccncc2)ccn1`: the “hERG current change (%, negative = inhibition) at 10uM” value is given as 26.7%. The figure for `O=S(=O)(NC1CCCCC1NCc1ccco1)c1ccccc1` (stereo not drawn) is 1.64%. The figure for `CCOC(=O)N1CCN(S(=O)(=O)c2ccc(F)c(C(=O)Nc3ccc(C(C)C)cc3)c2)CC1` is -27.3%; for `CC1CN(S(=O)(=O)c2ccc(CN3C(=O)c4cccnc4C3=O)cc2)c2ccccc2O1` (stereo not drawn) it is 6.4%. `Cc1occc1-c1nnc(SCC(=O)NC2CCCC2)n1-c1ccccc1`: the “hERG current change (%, negative = inhibition) at 10uM” value is -74.8%.

On to `CC(=O)NNC(=O)c1csc(Cc2c(Cl)sc3ccc(Cl)cc23)n1`, for which the “hERG current change (%, negative = inhibition) at 10uM” value is given as -19.6%. The value for `CN(C)S(=O)(=O)c1ccc(C(=O)Nc2ccc(Cl)cc2)cc1` was -2.2%; that for `Cc1cccc(OCC(=O)OCC(=O)N2CCN(C(=O)c3ccco3)CC2)c1C` was -31.8%.

Regarding `CC(=O)Nc1ccc(C(=O)N2CCc3cc4c(cc3C2C)OCCCO4)cc1` (stereo not drawn), the “hERG current change (%, negative = inhibition) at 10uM” value came out at 3.83%. As for `COc1cccc(C(=O)NCC(=O)N/N=C/c2c(C)[nH]c3ccccc23)c1`, the “hERG current change (%, negative = inhibition) at 10uM” value is 13.2%. For the compound `CCNc1nc(NCC)nc(SCCOc2ccc(C)cc2)n1`, the “hERG current change (%, negative = inhibition) at 10uM” value is on record as -40.6%. With `CCCS(=O)(=O)N1CCN(CCCc2ccccc2)CC1.O=C(O)C(=O)O`, the “hERG current change (%, negative = inhibition) at 10uM” value came to 4.11%. As for `COc1ccccc1CNC(=O)c1ccoc1C`, the “hERG current change (%, negative = inhibition) at 10uM” value is recorded as 0.921%.

Regarding `COc1ccccc1-n1c(SCC(=O)Nc2ccc(C)cc2)nc(O)cc1=O`, the “hERG current change (%, negative = inhibition) at 10uM” value came out at 2.38%.

Consider `CCOC(=O)c1cnc2ccc(OCC)cc2c1NCc1cccnc1.Cl`, for which the “hERG current change (%, negative = inhibition) at 10uM” value is -77.4%. The figure for `CC(=O)Nc1ccc(NC(=O)CSc2nccn2Cc2ccco2)cc1` is -36.8%; for `O=C(O)c1ccccc1C(=O)OCc1c(-c2ccccc2)ncc2ccccc12` it is 10.3%; for `COC(=O)c1ccc(NC(=O)NC(=O)Oc2ccccc2)cc1` it is -3.79%. On to `CCN(CC)S(=O)(=O)c1ccc(C(=O)NCCc2ccccn2)cc1`, for which the “hERG current change (%, negative = inhibition) at 10uM” value came to 10.8%. With `COc1cc(OC)c(OC)cc1CN(C)CCc1ccccn1.O=C(O)C(=O)O`, the “hERG current change (%, negative = inhibition) at 10uM” value was -11.2%. Regarding `COc1cccc(CN2CCNC(=O)C2CC(=O)NCCc2cccc(C)n2)c1OC` (stereo not drawn), the “hERG current change (%, negative = inhibition) at 10uM” value came to 5.74%. The figure for `O=c1ccc2cc(S(=O)(=O)Nc3ccc(Br)cc3)ccc2o1` is 5.32%; for `CCCCn1c(N)c(N(CC(C)C)C(=O)C2CCN(S(=O)(=O)c3ccc(OCC)cc3)CC2)c(=O)[nH]c1=O` it is 8.05%. In the case of `O=C(OCC(=O)N1CCC(Cc2ccccc2)CC1)c1ccc(CO)cc1`, the “hERG current change (%, negative = inhibition) at 10uM” value was -17%. `O=S(=O)([O-])C(c1ccccc1)[n+]1ccccc1` (stereo not drawn): the “hERG current change (%, negative = inhibition) at 10uM” value came out at 5.87%. The figure for `CC(=O)CC(c1ccccc1)S(=O)(=O)c1ccc([N+](=O)[O-])cc1` (stereo not drawn) is 12.8%.

On to `O=C1COc2ccc(C(=O)CCl)cc2N1`, for which the “hERG current change (%, negative = inhibition) at 10uM” value is -18.9%. The value for `CCOc1cc(C(=S)N2CCCCC2)ccc1OS(=O)(=O)c1ccc(Br)cc1` was 4.5%; that for `Cc1ccc(C(=O)Nc2cccc(C(F)(F)F)c2)cc1Nc1cncnc1.O=C(O)C(F)(F)F` was -74.3%; that for `N#Cc1ccc(CN2CCN(C(=O)c3cc(C4CC4)nn3-c3ccccc3)CC2)cc1` was -57.2%.

For the compound `COCCNC(=S)Nc1ccc2[nH]c(=O)[nH]c2c1`, the “hERG current change (%, negative = inhibition) at 10uM” value was -2.76%. The figure for `Cc1ccccc1-c1nc2ccccc2[nH]1` is -9.77%; for `Cc1c(CC(=O)N2CCN(C(=O)C3COc4ccccc4O3)CC2)c(=O)oc2cc(O)ccc12` (stereo not drawn) it is -44.7%; for `CCN1CCN(C(=O)c2ccccc2N(Cc2ccccc2)S(=O)(=O)c2ccc(C)cc2)CC1` it is -53.2%.
